Results reported in the supplement of paper PMC12217912.
This is one part of the list. Sequences were assembled here from the parent chain. Values near 0.05 are background.

B1: TEV protease; numbered along this chain (parent)
chain: MGESLFKGPRDYNPISSSICHLTNESDGHTTSLYGIGFGPFIITNKHLFRRNNGTLVVQSLHGVFKVKDTTTLQQHLVDGRDMIIIRMPKDFPPFPQKLKFREPQREERICLVTTNFQTKSMSSMVSDTSCTFPSGDGIFWKHWIQTKDGQCGSPLVSTRDGFIVGIHSASNFTNTNNYFTSVPKNFMELLTNQEAQQWVSGWRLNADSVLWGGHKVFMVKPEEPFQPVKEATQL

Variants of: B1
Assay: raw area under fraction-flipped curve 0-4 h after induction (AUC4h, not background-subtracted), DNA-recorder readout of cleavage of the substrate (dimensionless); higher = more cleavage of the substrate by the protease variant
Settings: temperature: 34 °C; time window: 0-4 h after rhamnose induction
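Note: Bxb1 expression induced with 0.2% (w/v) L-rhamnose at OD600 near 0.5, cultures sampled hourly, flipped fraction per protease–substrate barcode pair counted by paired-end Illumina sequencing.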

Variant | area with substrate ENLCFQS | area with substrate ENLDFQS | area with substrate ENLFFQS | area with substrate ENLKFQS | area with substrate ENLPFQS | area with substrate ENLQFQS | area with substrate ENLRFQS | area with substrate ENLSFQS | area with substrate ENLTFQS | area with substrate ENLVFQS
MGESLFKGPRDYNPISSSICHLTNESDGHTTSLYGIGFGPFIITNKHLFRRNNGTLVVQSLHGVFKVKDTTTLQQHLVDGRDMIIIRMPKDFPPFPQKLKFREPQREERICLKTTNFQTKSMSSMVSDTSCTFPSGDGIFWKHWIQTKDGQCGSPLVSTRDGFIVGIHSASNFTNTNNYFTSVPKNFMELLTNQEAQQWVSGWRLNADSVLWGGHKVFMVKPEEPFQPVKEATQL [V113K] | 0.0597 | 0.0656 | 0.0715 | 0.0632 | 0.0734 | 0.0574 | 0.0536 | 0.0454 | 0.0625 | 0.0673
MGESLFKGPRDYNPISSSICHLTNESDGHTTSLYGIGFGPFIITNKHLFRRNNGTLVVQSLHGVFKVKDTTTLQQHLVDGRDMIIIRMPKDFPPFPQKLKFREPQREERICLVTTNFQTKSMSSMVSDTSCTFPSGDGIFWKHWIQTKDGQCGSPLVSTRDGFIVGIHSASNFTNTNNYFTSVPKNFMELLTNQEAQQWVSGWRLNADSVLWGGHKVFMVKPDEPFQPVKEATQL [E223D] | 0.0625 |  |  |  |  |  |  | 0.0582 |  | 
MGESLFKGPRDYNPISSSICHLTNESDGHTTSLYGIGFGPFIITNKHLFRRNNGTLVVQSLHGVFKVKDTTTLQQHLVDGRDMIIIRMPKDFPPFPQKLKFREPQREERICLVTTNFQTKSMSSMVSDTSCTFPSGDGIFWKHWIQTKDGQCGSPLVSTRDGFIVGIHSASNFTNTNNYFTSVPKNFMELLTNQEAQQWVSGWRLNADSVLWGGHKVFMVKPEEPFQPDKEATQL [V229D] | 0.105 | 0.0551 | 0.121 | 0.107 |  |  |  |  |  | 
MGESLFKGPRDYNPISSSICHLTNESDGHTTSLYGIGFGPFIITNKHLFRRNNGTLVVQSLHGVFKVKDTTTLQQHLVDGRDMIIIRMPKDFPPFPQKLKFREPQREERICLVTTNFQTKSMSSMVSDTSCTFPSGDGIFWKHWIQTKDGQCGSPLVSTRDGFIVGIHSWSNFTNTNNYFTSVPKNFMELLTNQEAQQWVSGWRLNADSVLWGGHKVFMVKPEEPFQPVKEATQL [A170W] | 0.0697 | 0.0606 | 0.0551 | 0.0645 | 0.0618 |  |  |  |  | 0.0369
MGESLFKGPRDYNPISSSICHLTNESDGHTTSLYGIGFGPFIITNKHLFRRNNGTLVVQSLHGVFKVKDTTTLQQHLVDGRDMIIIRMPKDFPPFPQKLKFREPQREERICLVTTNFQTKSMSSMVSDTSCTFPSGDGIFWKHWIQTKDGQCGSPLVSTRDGFIVGIHSASNFTNTNNYFTSVPNNFMELLTNQEAQQWVSGWRLNADSVLWGGHKVFMVKPEEPFQPVKEATQL [K185N] | 0.0922 | 0.0818 | 0.0715 | 0.0829 |  | 0.0534 | 0.0853 | 0.0586 |  | 
MGESLFKGPRDYNPISSSICHLTNESDGHTTSLYGIGFGPFIITNKHLFRRNNGTLVVQSLHGVFKVKDTTTLQQHLVDGRDMIIIRMPKDFPPFPQKLKFREPQREERICLVTTNFQTKSMSSMVSDTSCTFPSGDGIFWKHWIQTKDGQCGSPLVSTRDGFIVGIHSASNFTNTNNYFTSVPKNFMELLTNQEAQQWVSGWRLNADSVLWGGHKLFMVKPEEPFQPVKEATQL [V217L] | 0.0744 |  |  |  | 0.0386 | 0.075 |  |  |  | 
MGESLFKGPRDYNPISSSICHLTNESDGHTTSLYGIGFGPFIITNKHLFRRNNGTLVVQSLHGVFKVKFTTTLQQHLVDGRDMIIIRMPKDFPPFPQKLKFREPQREERICLVTTNFQTKSMSSMVSDTSCTFPSGDGIFWKHWIQTKDGQCGSPLVSTRDGFIVGIHSASNFTNTNNYFTSVPKNFMELLTNQEAQQWVSGWRLNADSVLWGGHKVFMVKPEEPFQPVKEATQL [D69F] | 0.0777 |  |  |  | 0.0572 |  |  | 0.0489 |  | 
MGESLFKGPRDYNPISSSICHLTNESDGHTTSLYGIGFGPFIITNKHLFRRNNGTLVVQSLHGVFKVKDTTTLQQFLVDGRDMIIIRMPKDFPPFPQKLKFREPQREERICLVTTNFQTKSMSSMVSDTSCTFPSGDGIFWKHWIQTKDGQCGSPLVSTRDGFIVGIHSASNFTNTNNYFTSVPKNFMELLTNQEAQQWVSGWRLNADSVLWGGHKVFMVKPEEPFQPVKEATQL [H76F] | 0.0707 | 0.0679 |  |  | 0.0647 | 0.0748 |  | 0.0676 |  | 0.0503
MGESLFKGPRDYNPISSSICHLTNESDGHTTSLYGIGFGPFIITNKHLFRRNNGTLVVQSLHGVFKVKDTTTLQQHLVDGRDMIIIRMPKDFPPFPQKLKFREPQREERICLVTTNFQTKSMSSMVSDTSCTFPSGDGIFWKHWIQTKDGQCGSPLVSTRDGFIVGIHSASNFTNTNNYFTSVPKNFMELLTNQPAQQWVSGWRLNADSVLWGGHKVFMVKPEEPFQPVKEATQL [E195P] | 0.0899 |  |  |  | 0.0625 |  |  |  |  | 
MGESLFKGPRDYNPISSSICHLTNESDGHTTSLYGIGFGPFIITNKHLFRRNNGTLVVQSLHGVFKVKDTTTLQQHLVDGRDMIIIRMPKDFPPFPQKLKFREPQREERICLVTTNFQTKSMSSMVSDTSCTFPSGDGIFWKHWIQTKDGQCGSPLVSTRDGFIVGIHSASNFTNTNNYFTSVPKNFMELLTNQEAQQQVSGWRLNADSVLWGGHKVFMVKPEEPFQPVKEATQL [W199Q] | 0.0644 |  |  |  |  |  | 0.0254 | 0.0824 | 0.0514 | 0.0673
MGESLFKGPRDYNPISSSICHLTNESDGHTTSLYGIGFGPFIITNKHLFRRNNGTLVVQSLHGVFKVKDTTTLQQHLVDGRDMIIIRMPKDFPPFPQKLKFREPQREERICLVTTNFQTKSMSSMVSDTSCTFPSGDGIFWKHWIQTKDGQCGSPLVSTRDGFIVGIHSASNFTNTNNYFTSVPKNFMELLTNQEAQQWVSGWRLNADKVLWGGHKVFMVKPEEPFQPVKEATQL [S209K] | 0.059 | 0.0711 |  | 0.0442 | 0.0546 |  |  |  |  | 

Same assay, conditions: temperature: 34 °C; time window: 0-4 h after rhamnose induction

Variant | area with substrate ENLGFQS | area with substrate ENLHFQS | area with substrate ENLIFQS | area with substrate ENLWFQS | area with substrate ENLLFQS | area with substrate ENLNFQS | area with substrate ENLEFQS | area with substrate ENLMFQS
MGESLFKGPRDYNPISSSICHLTNESDGHTTSLYGIGFGPFIITNKHLFRRNNGTLVVQSLHGVFKVKDTTTLQQHLVDGRDMIIIRMPKDFPPFPQKLKFREPQREERICLVTTNFQTKSMSSMVSDTSCTFPSGDGIFWKHWIQTKDGQCGSPLVSTRDGFIVGIHSASNFTNTNNYFTSVPKNFMELLTNQEAQQWVSGWRLNADSVLWGGHKVFMVKPEEPFQPDKEATQL [V229D] | 0.0323 | 0.0611 | 0.0802 | 0.0869 |  |  |  | 
MGESLFKGPRDYNPISSSICHLTNESDGHTTSLYGIGFGPFIITNKHLFRRNNGTLVVQSLHGVFKVKDTTTLQQHLVDGRDMIIIRMPKDFPPFPQKLKFREPQREERICLVTTNFQTKSMSSMVSDTSCTFPSGDGIFWKHWIQTKDGQCGSPLVSTRDGFIVGIHSWSNFTNTNNYFTSVPKNFMELLTNQEAQQWVSGWRLNADSVLWGGHKVFMVKPEEPFQPVKEATQL [A170W] |  | 0.07 |  | 0.0509 | 0.0533 | 0.0778 |  | 
MGESLFKGPRDYNPISSSICHLTNESDGHTTSLYGIGFGPFIITNKHLFRRNNGTLVVQSLHGVFKVKDTTTLQQHLVDGRDMIIIRMPKDFPPFPQKLKFREPQREERICLVTTNFQTKSMSSMVSDTSCTFPSGDGIFWKHWIQTKDGQCGSPLVSTRDGFIVGIHSASNFTNTNNYFTSVPNNFMELLTNQEAQQWVSGWRLNADSVLWGGHKVFMVKPEEPFQPVKEATQL [K185N] |  | 0.0731 |  | 0.0445 |  | 0.0219 | 0.0651 | 0.0872
MGESLFKGPRDYNPISSSICHLTNESDGHTTSLYGIGFGPFIITNKHLFRRNNGTLVVQSLHGVFKVKDTTTLQQHLVDGRDMIIIRMPKDFPPFPQKLKFREPQREERICLVTTNFQTKSMSSMVSDTSCTFPSGDGIFWKHWIQTKDGQCGSPLVSTRDGFIVGIHSASNFTNTNNYFTSVPKNFMELLTNQEAQQWVSGWRLNADSVLWGGHKLFMVKPEEPFQPVKEATQL [V217L] |  |  |  |  |  | 0.0719 | 0.0597 | 
MGESLFKGPRDYNPISSSICHLTNESDGHTTSLYGIGFGPFIITNKHLFRRNNGTLVVQSLHGVFKVKFTTTLQQHLVDGRDMIIIRMPKDFPPFPQKLKFREPQREERICLVTTNFQTKSMSSMVSDTSCTFPSGDGIFWKHWIQTKDGQCGSPLVSTRDGFIVGIHSASNFTNTNNYFTSVPKNFMELLTNQEAQQWVSGWRLNADSVLWGGHKVFMVKPEEPFQPVKEATQL [D69F] |  | 0.0463 |  |  |  |  |  | 0.0559
MGESLFKGPRDYNPISSSICHLTNESDGHTTSLYGIGFGPFIITNKHLFRRNNGTLVVQSLHGVFKVKDTTTLQQFLVDGRDMIIIRMPKDFPPFPQKLKFREPQREERICLVTTNFQTKSMSSMVSDTSCTFPSGDGIFWKHWIQTKDGQCGSPLVSTRDGFIVGIHSASNFTNTNNYFTSVPKNFMELLTNQEAQQWVSGWRLNADSVLWGGHKVFMVKPEEPFQPVKEATQL [H76F] |  | 0.0726 |  | 0.0723 | 0.0573 | 0.0499 |  | 
MGESLFKGPRDYNPISSSICHLTNESDGHTTSLYGIGFGPFIITNKHLFRRNNGTLVVQSLHGVFKVKDTTTLQQHLVDGRDMIIIRMPKDFPPFPQKLKFREPQREERICLVTTNFQTKSMSSMVSDTSCTFPSGDGIFWKHWIQTKDGQCGSPLVSTRDGFIVGIHSASNFTNTNNYFTSVPKNFMELLTNQEAQQQVSGWRLNADSVLWGGHKVFMVKPEEPFQPVKEATQL [W199Q] |  |  |  |  |  |  | 0.0782 | 
MGESLFKGPRDYNPISSSICHLTNESDGHTTSLYGIGFGPFIITNKHLFRRNNGTLVVQSLHGVFKVKDTTTLQQHLVDGRDMIIIRMPKDFPPFPQKLKFREPQREERICLVTTNFQTKSMSSMVSDTSCTFPSGDGIFWKHWIQTKDGQCGSPLVSTRDGFIVGIHSASNFTNTNNYFTSVPKNFMELLTNQEAQQWVSGWRLNADKVLWGGHKVFMVKPEEPFQPVKEATQL [S209K] |  |  |  |  |  |  | 0.0745 | 0.0588
